In the RNAGym collection of RNA variant scans (doi:10.7554/elife.90254) one finds self-cleavage data, which are given here for 157 variants.

B1: OR4K15 (parent)
chain: GUUAACGGUCAUAGGCCAUGGAAACUAGGAGCACCAUUUCGCUGCCAGUGAAGAAAUGAACAAAGAAAAUCUGGGCCAGGCAGGCAUCAAAAGAAAUAGUCUUGCGCUCAACCAGAAAGUCUGUAAUCAUUUUAAGGGUA

Read counts are not given, so values of variants with three or more changes are uncertain.

The variants in this data set derive from B1. Description: self-cleavage, relative activity (ratio to wild type); higher = more cleavage; in vitro, sequencing; the parent is a self-cleaving ribozyme.
On to A90G A96G C109A U130C, for which the self-cleavage came to 0.12.

Take A92G U100C A118G A135G: the self-cleavage turned out to be 2.23.

With A91G A96G A111G, the self-cleavage turned out to be 0.02.

As to A90G U102C A140G, the self-cleavage is 1.03.

As for U100C A110G U130C, the self-cleavage worked out at 0.13.

For the variant U87C U100C U131C, the self-cleavage is 2.8.

On to U100C A118G U130C, for which the self-cleavage amounted to 1.34.

On to U100C A111G A126G, for which the self-cleavage was determined as 0.01.

Regarding A91U U97C A111G U120C, the self-cleavage was 0.

As to A94G U120C U130C, the self-cleavage is 0.96.

With U87C A92G A95G C113U U124A U130C, the self-cleavage amounted to 0.

As for U87C A92G U130C, the self-cleavage amounted to 0.17.

On to A96G U120A A129G, for which the self-cleavage amounted to 1.64.

On to A96G G104A U132C, for which the self-cleavage is 0.01.

Consider A92G U108A G136A, for which the self-cleavage stood at 0.

Regarding A114U A116C U127C, the self-cleavage was 0.

As for A90G A98G U124C, the self-cleavage was 0.31.

A92G A94U U131C: the self-cleavage stood at 0.72.

With G106A A111G U133C, the self-cleavage came out at 0.02.

As to A92G U103C U108C A116G A118G, the self-cleavage is 0.

Take A94G A96G U100C: the self-cleavage was determined as 1.83.

Consider A86G A91G A111G, for which the self-cleavage stood at 0.

Take U103C A110G A129G: the self-cleavage amounted to 0.07.

With U87C U120C U122C, the self-cleavage came out at 1.24.

For the variant U87C A116G C128A U132A, the self-cleavage worked out at 0.23.

A92U A94G U108C U132C: the self-cleavage was 0.

As for A96G A114U U131C, the self-cleavage is 0.02.

As for A92G U97C A117G A126G U132A, the self-cleavage is 0.61.

In the case of G93C A96C U102A U120C, the self-cleavage is 0.13.

On to U108A A117G A134G, for which the self-cleavage came out at 0.01.

With A91G A118U U122C, the self-cleavage was 0.24.

On to U87C U108C U122G, for which the self-cleavage stood at 0.02.

With U87C A95G U120C, the self-cleavage amounted to 0.69.

As to A86G U127C A140G, the self-cleavage came out at 0.99.

A91U A96G A117G: the self-cleavage worked out at 2.86.

In the case of U120C U124C U131C, the self-cleavage turned out to be 1.53.

For the variant A90G A94U A125G, the self-cleavage came out at 0.26.

Regarding A91G A118G G137A, the self-cleavage came to 0.22.

As to G93A A96U A135G, the self-cleavage amounted to 2.64.

Regarding A89U A117G A118U, the self-cleavage worked out at 1.66.

Turning to U87C A91G U120G U122G, the self-cleavage worked out at 0.86.

Consider A89G U103C A126G A135U, for which the self-cleavage was 0.34.

In the case of A126G U127A G137A, the self-cleavage was 2.

In the case of A95G U100C A117G, the self-cleavage came to 2.89.

Consider A89G C105G U139C, for which the self-cleavage came out at 0.06.

Consider A96G A114G A118G, for which the self-cleavage came out at 0.68.

A94G C107A A126G: the self-cleavage came to 0.01.

As for A86G A116C A117G, the self-cleavage is 0.49.

Regarding A92G A117G U120C G123A, the self-cleavage is 0.52.

A92G U103G U133C: the self-cleavage amounted to 0.02.

U102A A118U U132C: the self-cleavage amounted to 0.11.

For A95G U120C U132C, the self-cleavage is 1.79.

On to A110U A111G A114U A118G, for which the self-cleavage was found to be 0.

With A91U A98G U122A U130C, the self-cleavage was determined as 0.65.

With A95G G104A U122C, the self-cleavage was 0.03.

Consider U108C A110G A114G, for which the self-cleavage came out at 0.01.

As for A89G A95U A96G U122C, the self-cleavage worked out at 0.15.

In the case of U108C U124C A126C, the self-cleavage was 0.

A89G C109A A126G A135G: the self-cleavage was determined as 0.13.

For the variant A89G A129U U130C, the self-cleavage was 0.94.

On to U108C U122C U124C, for which the self-cleavage was found to be 0.01.

On to U87C U100C U108C U130C, for which the self-cleavage came to 0.

Regarding U102C A111G A134G, the self-cleavage was found to be 0.01.

With U97C U103C A129G, the self-cleavage came to 0.59.

As for U103C A118G A129G U132A, the self-cleavage stood at 0.05.

As to A116G U130C U133C, the self-cleavage was 0.34.

Regarding U108A A110G A116G A118G U139C, the self-cleavage is 0.

Take A89G A116U U122A A135U: the self-cleavage was determined as 0.21.

Turning to A92G A116G A117G, the self-cleavage turned out to be 0.49.

As for U87C A96G U130C A135G, the self-cleavage was determined as 1.41.

Take A96G A117G U133C: the self-cleavage is 2.68.

Turning to A86G A91U A94G, the self-cleavage was determined as 1.38.

In the case of G93A A110G U132C, the self-cleavage was 0.05.

With A117G A118G A140C, the self-cleavage is 1.42.

For the variant A94U U97A U132C, the self-cleavage was found to be 2.24.

Regarding U102C U122C A140G, the self-cleavage stood at 1.46.

For A91G U108C A116G, the self-cleavage turned out to be 0.

Consider A92U A94G A96G U120C, for which the self-cleavage is 0.31.

Consider A89G A94G U100C A116G, for which the self-cleavage turned out to be 1.15.

As for A94G U100C U124A, the self-cleavage was determined as 1.01.

Take A118G A134U A140G: the self-cleavage is 1.09.

A95G U103A A110U: the self-cleavage was found to be 1.78.

Regarding A91G U108A A117U, the self-cleavage is 0.

Turning to A92G A98G A126G, the self-cleavage worked out at 0.35.

A110U A111G U122A G138A: the self-cleavage was determined as 0.01.

Consider U108C U120C U130C, for which the self-cleavage stood at 0.

For the variant A92G A125G G136A, the self-cleavage turned out to be 0.99.

As for A89G U102C C109U A111G, the self-cleavage was found to be 0.02.

On to A96G A118G U132C, for which the self-cleavage was 1.34.

Regarding A86G A92G U108G, the self-cleavage worked out at 0.01.

On to U100C A110G A118G, for which the self-cleavage turned out to be 0.19.

As for A94U U100C A118G, the self-cleavage stood at 2.28.

For the variant A90G U120C A135U, the self-cleavage is 0.21.

Take A94G A114G A126G: the self-cleavage turned out to be 0.39.

Consider A89C A94G A95G A118G A135G, for which the self-cleavage stood at 2.3.

For U108C A118G U130C, the self-cleavage came out at 0.

With A94G A117G A135C, the self-cleavage came out at 0.7.

Regarding U108C A111G A125G, the self-cleavage was determined as 0.

Take G106A C128A A129G: the self-cleavage was 0.01.

A86G A118G A140G: the self-cleavage was 0.47.

As for A90G A117G A126G, the self-cleavage is 0.31.

With A96G A111G U120C U130C, the self-cleavage stood at 0.

Turning to G106U U131C U132C, the self-cleavage amounted to 0.

On to A86G A129C U131C U132C A135U, for which the self-cleavage came out at 0.

In the case of A95G A111G U122C U132C, the self-cleavage was 0.

As to A90G U122C G137A, the self-cleavage was 0.43.

Take A89G A92G U103A: the self-cleavage amounted to 0.66.

With A116G U130C A135U, the self-cleavage worked out at 0.09.

Regarding A111G A114G A126U, the self-cleavage turned out to be 0.01.

Consider U100A C112U U131C, for which the self-cleavage was 0.01.

For A90G U102C U108C U124C, the self-cleavage was determined as 0.02.

On to A90G A114G A135U, for which the self-cleavage was determined as 0.07.

On to A116U A126G U131G, for which the self-cleavage came to 0.19.

As for U87A U124A U132C, the self-cleavage was 0.51.

On to A96G A126G A134G, for which the self-cleavage was 1.15.

For C109U U122A A140G, the self-cleavage was found to be 0.44.

As for A96G U103C A125G, the self-cleavage came to 0.59.

Consider A98C A126G A135G, for which the self-cleavage amounted to 1.91.

Take U87C A116U A140G: the self-cleavage came out at 0.18.

For the variant A86G A96U A110G A129G, the self-cleavage amounted to 0.06.

In the case of A86G U87C A95G, the self-cleavage came out at 1.33.

Turning to U87C U100A A118U, the self-cleavage came out at 0.23.

As for A90G U100A U131C, the self-cleavage was determined as 0.07.

With U97C A118C G123U, the self-cleavage came to 2.39.

Regarding U87C A95G G137A, the self-cleavage came to 1.23.

Consider U122A A125G A135U, for which the self-cleavage was 1.03.

Regarding A96G A126G A129G U139C, the self-cleavage turned out to be 0.76.

On to A86U A96G A98G, for which the self-cleavage amounted to 0.7.

Consider A96G U103C U127C, for which the self-cleavage is 0.09.

Regarding A94G G115U U124C, the self-cleavage is 0.01.

On to A89U U103C U130C, for which the self-cleavage came out at 0.68.

For the variant A91G U103C U122C, the self-cleavage was 0.22.

As to U103C U127C U133C, the self-cleavage stood at 0.77.

For the variant U87C A89G C105U A118G, the self-cleavage amounted to 0.02.

On to A114G A117G A126U U139A, for which the self-cleavage came out at 0.67.

For U87C A94U A98G A114G, the self-cleavage came out at 0.42.

On to A95G A111G U132C, for which the self-cleavage came to 0.04.

In the case of A95G U102A U139C A140G, the self-cleavage came out at 2.13.

A91U A96G A116G U122C U131A: the self-cleavage came out at 0.62.

For A89G A118G A134G, the self-cleavage turned out to be 1.02.

As to A91G A92G U132C, the self-cleavage turned out to be 1.18.

U87C G115U U124C: the self-cleavage was found to be 0.01.

U87C A91C A92G A116G A118G: the self-cleavage was 0.57.

Take A86G U108A U122C: the self-cleavage is 0.

For A96C U97C A129G U130A, the self-cleavage is 0.32.

Regarding A86U A95G A117G, the self-cleavage amounted to 2.51.

A91G U102C U108A U133A: the self-cleavage was 0.

Take A91G U102C C105U U130C: the self-cleavage stood at 0.34.

With U122A U127A A129G, the self-cleavage stood at 2.13.

Regarding A111G U122C U132C, the self-cleavage stood at 0.01.

Consider U87C A117G U120A, for which the self-cleavage is 1.71.

On to U103C C107U A135G, for which the self-cleavage was determined as 0.

Consider A98G C109U U122C, for which the self-cleavage was found to be 0.04.

As to A94G U131C A140U, the self-cleavage came to 0.96.

Consider A96G G104A U139C, for which the self-cleavage was found to be 0.03.

As for A86G A118G U132C, the self-cleavage amounted to 0.92.

A95G U108C U132C: the self-cleavage amounted to 0.02.
